Each structure is given as a SMILES string. The list shows a part of the results. Many values rest on one well or one pass, so single values are uncertain.
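Note: cell number obtained by counting DAPI-stained nuclei in high-throughput microscope images with image analysis software, screen run in 1,536-well plates.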

The test system of one experiment is RPMI7951. As to the kind of experiment: cell count relative to DMSO control; melanoma cells; higher = more viable cells. To be noted: library dose: low library concentration; 72 h.
Consider `Nc1ncn([C@H]2C[C@H](O)[C@@H](CO)O2)c(=O)n1` [decitabine] + COc1ccc(-c2ccc3c(N4CCOCC4)nc(N4C[C@@H](C)O[C@@H](C)C4)nc3n2)cc1CO [KU0063794] (first compound 0.1 µM, partner dose 0.02 µM), for which the cell count is 92.3%.
On the same count and under the same terms, then `Nc1ccn([C@@H]2O[C@H](CO)[C@@H](O)C2(F)F)c(=O)n1` [gemcitabine] + CC1(C)NC(=O)N(c2ccc([N+](=O)[O-])c(C(F)(F)F)c2)C1=O [nilutamide] (first compound 0.0004 µM, partner dose 1 µM), with 103%; and `CC(=O)c1c(C)c2cnc(Nc3ccc(N4CCNCC4)cn3)nc2n(C2CCCC2)c1=O` [palbociclib] + CC(C)(C)c1cnc(CSc2cnc(NC(=O)C3CCNCC3)s2)o1 [SNS-032] (first compound 0.04 µM, partner dose 0.01 µM), with 90.9%; and `Nc1ccn([C@@H]2O[C@H](CO)[C@@H](O)C2(F)F)c(=O)n1` [gemcitabine] + Cc1ccc(NC(=O)c2cccc(N(C)C)c2)cc1NC(=O)c1ccc(O)cc1 [ZM336372] (first compound 0.0004 µM, partner dose 2 µM), with 96.9%.

In a further experiment the test system is RVH-421. The experiment is described as above. To be noted: library dose: low library concentration; 72 h.
`CC(=O)O[C@@]12CO[C@@H]1C[C@H](O)[C@@]1(C)C(=O)[C@H](O)C3=C(C)[C@@H](OC(=O)[C@H](O)[C@@H](NC(=O)OC(C)(C)C)c4ccccc4)C[C@@](O)([C@@H](OC(=O)c4ccccc4)[C@H]21)C3(C)C` [Docetaxel] + CN(NC(=O)CC(=O)NN(C)C(=S)c1ccccc1)C(=S)c1ccccc1 [STA4783] (first compound 0.0001 µM, partner dose 0.006 µM) gave a cell count of 75.8%.
On the same count and under the same terms, then `CC(=O)O[C@@]12CO[C@@H]1C[C@H](O)[C@@]1(C)C(=O)[C@H](O)C3=C(C)[C@@H](OC(=O)[C@H](O)[C@@H](NC(=O)OC(C)(C)C)c4ccccc4)C[C@@](O)([C@@H](OC(=O)c4ccccc4)[C@H]21)C3(C)C` [Docetaxel] + Cc1ccc(NC(=O)c2cccc(N(C)C)c2)cc1NC(=O)c1ccc(O)cc1 [ZM336372] (first compound 0.0001 µM, partner dose 2 µM), with 78.2%; and `Nc1ncn([C@H]2C[C@H](O)[C@@H](CO)O2)c(=O)n1` [decitabine] + CO[C@@H]1[C@H](N(C)C(=O)c2ccccc2)C[C@H]2O[C@]1(C)n1c3ccccc3c3c4c(c5c6ccccc6n2c5c31)C(=O)NC4 [Midostaurin] (first compound 0.1 µM, partner dose 0.08 µM), with 69.6%.
Molecule `Nc1ccn([C@@H]2O[C@H](CO)[C@@H](O)C2(F)F)c(=O)n1` [gemcitabine] + CCc1ccc(CCOc2ccc(CC3SC(=O)NC3=O)cc2)nc1 [pioglitazone] (first compound 0.0004 µM, partner dose 2 µM) displayed a cell count of 86.2%.
Same read-out and setting: then `CC(=O)c1c(C)c2cnc(Nc3ccc(N4CCNCC4)cn3)nc2n(C2CCCC2)c1=O` [palbociclib] + C=CCn1c(=O)c2cnc(Nc3ccc(N4CCN(C)CC4)cc3)nc2n1-c1cccc(C(C)(C)O)n1 [MK1775] (first compound 0.04 µM, partner dose 0.02 µM), with 98%; and `CC(=O)c1c(C)c2cnc(Nc3ccc(N4CCNCC4)cn3)nc2n(C2CCCC2)c1=O` [palbociclib] + Oc1cc(-c2nc(-c3ccccc3)[nH]c2-c2ccncc2)ccc1Cl [L779450] (first compound 0.04 µM, partner dose 0.2 µM), with 98.2%.
Same read-out and setting: then `Nc1ncn([C@H]2C[C@H](O)[C@@H](CO)O2)c(=O)n1` [decitabine] + c1cc(-c2cnn3cc(-c4ccc(OCCN5CCCCC5)cc4)cnc23)ccn1 [Dorsomorphin] (first compound 0.1 µM, partner dose 0.4 µM), with 97.2%; and `Nc1ncn([C@H]2C[C@H](O)[C@@H](CO)O2)c(=O)n1` [decitabine] + O=C(Nc1ccccc1)c1cc([N+](=O)[O-])ccc1Cl [GW9662] (first compound 0.1 µM, partner dose 2 µM), with 84.1%; and `Nc1ncn([C@H]2C[C@H](O)[C@@H](CO)O2)c(=O)n1` [decitabine] + O=C(Nc1cccc(Cl)c1)Nc1ncc(CCNc2ncnc3ccsc23)s1 [SNS314] (first compound 0.1 µM, partner dose 0.0008 µM), with 81.9%.
Molecule `CC(=O)O[C@@]12CO[C@@H]1C[C@H](O)[C@@]1(C)C(=O)[C@H](O)C3=C(C)[C@@H](OC(=O)[C@H](O)[C@@H](NC(=O)OC(C)(C)C)c4ccccc4)C[C@@](O)([C@@H](OC(=O)c4ccccc4)[C@H]21)C3(C)C` [Docetaxel] + Cn1cncc1[C@@](N)(c1ccc(Cl)cc1)c1ccc2c(c1)c(-c1cccc(Cl)c1)cc(=O)n2C [tipifarnib] (first compound 0.0001 µM, partner dose 0.01 µM) showed a cell count of 88.2%.
On the same count and under the same terms, then `Nc1nc(F)nc2c1ncn2[C@@H]1O[C@H](CO)[C@@H](O)[C@@H]1O` [fludarabine] + CC1(C)NC(=O)N(c2ccc([N+](=O)[O-])c(C(F)(F)F)c2)C1=O [nilutamide] (first compound 0.2 µM, partner dose 1 µM), with 109%; and `Nc1ncn([C@H]2C[C@H](O)[C@@H](CO)O2)c(=O)n1` [decitabine] + O=C(CCCCCCC(=O)Nc1ccccc1)NO [vorinostat] (first compound 0.1 µM, partner dose 0.08 µM), with 101%; and `CC(=O)c1c(C)c2cnc(Nc3ccc(N4CCNCC4)cn3)nc2n(C2CCCC2)c1=O` [palbociclib] + COc1ccc(-c2ccc3c(N4CCOCC4)nc(N4C[C@@H](C)O[C@@H](C)C4)nc3n2)cc1CO [KU0063794] (first compound 0.04 µM, partner dose 0.02 µM), with 73.4%.
Same read-out and setting: then `Nc1nc(F)nc2c1ncn2[C@@H]1O[C@H](CO)[C@@H](O)[C@@H]1O` [fludarabine] + O=C(O)C(=O)Nc1sc2c(c1C(=O)O)CCNC2 [TCS401] (first compound 0.2 µM, partner dose 1.66667 µM), with 75.1%; and `Nc1ncn([C@H]2C[C@H](O)[C@@H](CO)O2)c(=O)n1` [decitabine] + COc1cc(Nc2ncc(F)c(Nc3ccc4c(n3)NC(=O)C(C)(C)O4)n2)cc(OC)c1OC [Tamatinib] (first compound 0.1 µM, partner dose 0.4 µM), with 97.3%.
The same measure, in the same setting: then `Nc1nc(F)nc2c1ncn2[C@@H]1O[C@H](CO)[C@@H](O)[C@@H]1O` [fludarabine] + CCc1ccc(CCOc2ccc(CC3SC(=O)NC3=O)cc2)nc1 [pioglitazone] (first compound 0.2 µM, partner dose 2 µM), with 104%; and `Nc1ccn([C@@H]2O[C@H](CO)[C@@H](O)C2(F)F)c(=O)n1` [gemcitabine] + O=C(Nc1cccc(Cl)c1)Nc1ncc(CCNc2ncnc3ccsc23)s1 [SNS314] (first compound 0.0004 µM, partner dose 0.0008 µM), with 83.4%.
`Nc1ccn([C@@H]2O[C@H](CO)[C@@H](O)C2(F)F)c(=O)n1` [gemcitabine] + CN(C)S(=O)(=O)c1ccc2c(c1)/C(=C/c1cc3c([nH]1)CCCC3)C(=O)N2 [SU6656] (first compound 0.0004 µM, partner dose 0.4 µM) returned a cell count of 88.4%.
For the molecule `Nc1ncn([C@H]2C[C@H](O)[C@@H](CO)O2)c(=O)n1` [decitabine] + COc1cc(N2CCC(N3CCN(C)CC3)CC2)ccc1Nc1ncc(Cl)c(Nc2ccccc2S(=O)(=O)C(C)C)n1 [NVP-TAE684] (first compound 0.1 µM, partner dose 0.08 µM), the cell count amounted to 61.6%.
On the same count and under the same terms, then `CC(=O)O[C@@]12CO[C@@H]1C[C@H](O)[C@@]1(C)C(=O)[C@H](O)C3=C(C)[C@@H](OC(=O)[C@H](O)[C@@H](NC(=O)OC(C)(C)C)c4ccccc4)C[C@@](O)([C@@H](OC(=O)c4ccccc4)[C@H]21)C3(C)C` [Docetaxel] + CCCCCCCCCCCC1=C(O)C(=O)C=C(O)C1=O [Embelin] (first compound 0.0001 µM, partner dose 1.2 µM), with 60%.
The same measure, in the same setting: then `CC(=O)c1c(C)c2cnc(Nc3ccc(N4CCNCC4)cn3)nc2n(C2CCCC2)c1=O` [palbociclib] + O=C(Nc1cccc(Cl)c1)Nc1ncc(CCNc2ncnc3ccsc23)s1 [SNS314] (first compound 0.04 µM, partner dose 0.0008 µM), with 103%.
The same measure, in the same setting: then `CC(=O)O[C@@]12CO[C@@H]1C[C@H](O)[C@@]1(C)C(=O)[C@H](O)C3=C(C)[C@@H](OC(=O)[C@H](O)[C@@H](NC(=O)OC(C)(C)C)c4ccccc4)C[C@@](O)([C@@H](OC(=O)c4ccccc4)[C@H]21)C3(C)C` [Docetaxel] + N#Cc1c(O)c2c(-c3ccc(-c4ccccc4O)cc3)csc2[nH]c1=O [A769662] (first compound 0.0001 µM, partner dose 2 µM), with 72.1%; and `Nc1ccn([C@@H]2O[C@H](CO)[C@@H](O)C2(F)F)c(=O)n1` [gemcitabine] + CC(C)CCN1c2nc(Nc3cc(F)c(O)c(F)c3)ncc2N(C)C(=O)C1C [BID1870] (first compound 0.0004 µM, partner dose 0.2 µM), with 82%; and `Nc1nc(F)nc2c1ncn2[C@@H]1O[C@H](CO)[C@@H](O)[C@@H]1O` [fludarabine] + N#Cc1c(O)c2c(-c3ccc(-c4ccccc4O)cc3)csc2[nH]c1=O [A769662] (first compound 0.2 µM, partner dose 2 µM), with 78.8%.

Source of the values: the supplement of paper PMC4604168 (melanoma cell lines).
